{"source": "PubChem BioAssay AID651820", "about": "(National Center for Advancing Translational Sciences (NCATS), 2012)", "note": "Several values for one entry are separate records, joined by “and”; a condition that tells them apart may be missing. Equal values may be shown once. Out of some 340,000 compounds screened, about 12,000 (3.5%) were called active. This list was built around the results that the source calls inconclusive (neither active nor inactive); the mix of calls is not that of the screen. The call rests on the fitted dose curve; in most records, active means well fitted inhibition curve with a large enough effect; inconclusive means small, poorly fitted or top-dose-only effect, or another doubt; inactive means no such curve, though single readings can be large or run the other way. Where the call is inconclusive, the potency comes from a doubtful curve fit. On the % scale 0 is the no-effect control and ±100 the full control effect; potency means the concentration at half of the fitted maximal effect; tags describe the fitted curve by direction and shape.", "data": [{"test": "qHTS Assay for Inhibitors of Hepatitis C Virus (HCV)", "conditions": "Huh7.5.1 HCVcc-Cre (HCVcc is cell-culture hepatitis C virus) infection, luciferase reporter, 44 h; activity change, negative = inhibition: at 41.8 µM (top of the series)", "outline": "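Seed cells (1,000/well) for 4 h; treat with compound and infect with HCVcc-Cre, moi about 0.5. Incubate 44 h, then detect luciferase activity.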", "values": [{"smiles": "COCCNC(=O)CSC1=N/C(=C/c2ccc(Cl)c(Cl)c2)C(=O)N1c1ccccc1F", "Potency": "inconclusive: 31.6 µM [inhibitor, single point]"}, {"smiles": "O=C(Nc1cccnc1)OC1CCCC1", "activity change, negative = inhibition": "inactive: 0.994%"}, {"smiles": "Cc1cc(C)n(-c2cc(N3CCN(S(=O)(=O)c4ccc(Br)cc4)CC3)ccc2[N+](=O)[O-])n1", "Potency": "inconclusive: 10 µM [inhibitor, single point]"}, {"smiles": "CCN(CC)CCCN(C(=O)c1ccco1)c1nc(-c2ccc(C)cc2)cs1", "Potency": "inconclusive: 12.6 µM [inhibitor, single point]"}, {"smiles": "CN(Cc1ccccc1)S(=O)(=O)c1ccc(Cl)c(C(=O)O)c1", "Potency": "inconclusive: 11.2 µM [inhibitor, single point]"}, {"smiles": "CC(C)c1cc(C(=O)Nc2sc3c(c2C#N)CCC3)no1", "Potency": "inconclusive: 11.2 µM [inhibitor, single point]"}, {"smiles": "C[C@@H]1CC=C[C@H]2[C@H]1C(=O)N(Cc1ccccc1)[C@H]2c1ccoc1", "activity change, negative = inhibition": "inactive: -13.7%"}, {"smiles": "COc1ccc(Br)cc1C(=O)Nc1ccc(N2CCN(S(C)(=O)=O)CC2)cc1", "activity change, negative = inhibition": "inactive: -26.2%"}, {"smiles": "CCN1CC(CN(C)Cc2cn(-c3cccc(C)c3)nc2-c2cccc(F)c2)CC1=O", "note": "(configuration not stated)", "Potency": "inconclusive: 22.4 µM [inhibitor, single point]"}, {"smiles": "CC(C)Oc1ccc(CCN=C(N)N=C(N)N)cc1Cl", "activity change, negative = inhibition": "inactive: -17.7%"}, {"smiles": "CN(C)C(=O)Oc1cccc(-c2cn3cc(Cl)ccc3n2)c1", "Potency": "inconclusive: 22.4 µM [inhibitor, single point]"}, {"smiles": "Cc1ccc(S(=O)(=O)C2(C(=O)N3CCCCCC3)CC2)cc1", "activity change, negative = inhibition": "inactive: 11.9%"}, {"smiles": "Cc1cccc(NC(=S)NCCC(c2ccccc2)c2ccccc2)c1", "Potency": "inconclusive: 0.447 µM [inhibitor, full curve, poor fit]"}, {"smiles": "CS(=O)(=O)c1ccc(C(=O)N2CCN(C(=O)c3ccco3)CC2)cc1", "activity change, negative = inhibition": "inactive: 15.5%"}, {"smiles": "Cn1nc(C(F)(F)F)c2cc(NC(=O)OCc3ccc(F)cc3)sc21", "Potency": "active: 10 µM"}, {"smiles": "COc1cccc(-n2c(SCC(=O)Nc3cc(C)on3)nc3c([nH]c4ccccc43)c2=O)c1", "Potency": "inconclusive: 25.1 µM [inhibitor, single point] and inconclusive: 8.91 µM [inhibitor, partial curve]"}, {"smiles": "O=C(NCCc1csc(-c2cccnc2)n1)c1cccc2ccccc12", "Potency": "inconclusive: 31.6 µM [inhibitor, single point]"}, {"smiles": "Cc1ccc(CNC(=O)CN(C(=O)C2(C)CC(=O)N=C3C=CC=CN32)c2cc(C)ccc2C)cc1", "note": "(configuration not stated)", "activity change, negative = inhibition": "inactive: 1.43%"}, {"smiles": "C=CCn1c(=O)c(C(=O)NCCc2ccccc2)c(O)c2ccccc21", "Potency": "inconclusive: 6.31 µM [inhibitor, full curve]"}, {"smiles": "Cc1ccc(-c2cc3nc(-c4ccc(Br)cc4)cc(N)n3n2)cc1", "activity change, negative = inhibition": "inactive: -4.97%"}, {"smiles": "Cc1ccc(C)c(NC(=O)CSc2nc3c(oc4ccccc43)c(=O)n2-c2ccccc2)c1", "Potency": "inconclusive: 6.31 µM [inhibitor, partial curve]"}, {"smiles": "O=C(CCc1nnc(CCCCc2ccccc2)o1)NCCc1cccnc1", "activity change, negative = inhibition": "inactive: 20.2%"}, {"smiles": "COc1cc2c(cc1OC)C(c1ccc(-c3ccc(Cl)cc3Cl)o1)=NCC2", "Potency": "active: 11.2 µM"}, {"smiles": "O=CC(Br)P(=O)(N1CCOCC1)N1CCOCC1", "note": "(configuration not stated)", "activity change, negative = inhibition": "inactive: 6.21%"}, {"smiles": "CCCCCCCNC(=O)CN1C(=O)CSc2ccc(S(=O)(=O)N3CCOCC3)cc21", "Potency": "inconclusive: 12.6 µM [inhibitor, single point]"}, {"smiles": "C=C(C)Cn1c(SCC(=O)N/N=C/c2c(O)ccc3ccccc23)nc2ccccc2c1=O", "Potency": "inconclusive: 31.6 µM [inhibitor, single point]"}, {"smiles": "Cc1ccc(Nc2nnc(SCC(=O)Nc3ccc(S(=O)(=O)N4CCOCC4)cc3)s2)cc1", "Potency": "inconclusive: 10 µM [inhibitor, single point]"}, {"smiles": "COc1cc2c(cc1NC(=O)CCC(=O)O)oc1ccccc12", "Potency": "inconclusive: 31.6 µM [inhibitor, single point]"}, {"smiles": "CCOC(=O)C1=C(COC(=O)c2cc(OC)c(OC)c(OC)c2)NC(=O)NC1C", "note": "(configuration not stated)", "Potency": "inconclusive: 3.98 µM [inhibitor, full curve, poor fit]"}, {"smiles": "Cc1ccc(OCC(O)CN2CCCC2)cc1", "note": "(configuration not stated)", "activity change, negative = inhibition": "inactive: 21.1%"}, {"smiles": "O=C(CCNS(=O)(=O)c1ccc(Br)s1)N1CCN(c2ccccc2)CC1", "activity change, negative = inhibition": "inactive: -15.1%"}, {"smiles": "Cc1ccccc1N=Nc1c(O)[nH]c2ccccc12", "activity change, negative = inhibition": "inactive: 17.1%"}, {"smiles": "COC1OC2COC(c3ccccc3)OC2C(O)C1NC(=O)c1ccccc1", "note": "(configuration not stated)", "activity change, negative = inhibition": "inactive: 12.6%"}, {"smiles": "CN(C)c1ccc(/C=C(/C(=O)c2ccc(Cl)cc2Cl)n2cncn2)cc1", "Potency": "inconclusive: 31.6 µM [inhibitor, single point]"}, {"smiles": "O=C(OCc1cc([N+](=O)[O-])cc2c1OCOC2)c1ccc2ccccc2n1", "Potency": "inconclusive: 11.2 µM [inhibitor, partial curve, poor fit]"}, {"smiles": "Cc1ccc(C2=NS(=O)(=O)N(C)C(C(=O)Nc3ccc(F)cc3F)=C2)cc1", "Potency": "inconclusive: 8.91 µM [inhibitor, partial curve]"}, {"smiles": "O=C1CCCc2cc3c(cc21)CC1(C3)Cc2cc3c(cc2C1)C(=O)CCC3", "Potency": "active: 11.2 µM"}, {"smiles": "COc1cc(CNS(=O)(=O)c2ccc3c(c2)CC(C)N3C(=O)C2CCC2)cc(OC)c1OC", "note": "(configuration not stated)", "Potency": "active: 10 µM"}, {"smiles": "COc1ccc(OC)c(NC(=O)c2cc(S(=O)(=O)N3CCCCC3)c[nH]2)c1", "Potency": "inconclusive: 22.4 µM [inhibitor, single point]"}, {"smiles": "Cn1nnnc1SCCNCc1ccccc1OCc1ccccc1Cl", "Potency": "inconclusive: 14.1 µM [inhibitor, single point]"}, {"smiles": "CN(C)C(=S)Nc1ccc(Cl)cc1", "activity change, negative = inhibition": "inactive: 12.9%"}, {"smiles": "O=S(=O)(c1ccccc1)c1nc(-c2ccccc2Cl)oc1NCCCN1CCOCC1", "Potency": "inconclusive: 31.6 µM [inhibitor, single point]"}, {"smiles": "CC1(c2nnc(-c3ccccc3)o2)CC(c2ccc([N+](=O)[O-])cc2)=NO1", "note": "(configuration not stated)", "Potency": "inconclusive: 22.4 µM [inhibitor, single point]"}, {"smiles": "CC(=O)c1ccc(Nc2cc(C)nc3ccccc23)cc1", "Potency": "inconclusive: 6.31 µM [inhibitor, partial curve]"}, {"smiles": "NS(=O)(=O)c1ccc(CCNC(=O)c2ccc(Cl)c(S(=O)(=O)N3CCCCC3)c2)cc1", "activity change, negative = inhibition": "inactive: 1.98%"}, {"smiles": "CCCC(=O)Nc1nnc(S(=O)(=O)N2CCCCCC2)s1", "activity change, negative = inhibition": "inactive: 13.5%"}, {"smiles": "COc1ccc(NC(=O)CSc2nnnn2C2CC2)cc1S(=O)(=O)N1CCOCC1", "Potency": "inconclusive: 12.6 µM [inhibitor, single point]"}, {"smiles": "CCOc1c2ccc(C(=O)NCCc3ccc(C)cc3)cc2nn1CC", "activity change, negative = inhibition": "inactive: -17.9%"}, {"smiles": "O=C(CNC(=O)OCc1ccccc1)OC(c1ccccc1)c1ccccc1", "Potency": "inconclusive: 31.6 µM [inhibitor, single point]"}, {"smiles": "N#CC1c2ccccc2-n2nncc2CN1S(=O)(=O)c1ccccc1", "note": "(configuration not stated)", "Potency": "inconclusive: 3.16 µM [inhibitor, single point]"}, {"smiles": "CCn1cc(S(=O)(=O)c2ccc(OC)cc2)c(=O)c2cc(F)c(N3CCN(C)CC3)cc21", "activity change, negative = inhibition": "inactive: -0.381%"}, {"smiles": "CCOc1cc(/C=N/O)cc(Br)c1OC", "Potency": "active: 8.91 µM"}, {"smiles": "CN(c1ccc(C(=O)Nc2cccc([N+](=O)[O-])c2)cc1)S(C)(=O)=O", "Potency": "inconclusive: 10 µM [inhibitor, partial curve]"}, {"smiles": "Nc1nc(NCc2ccco2)nc(N2CCN(Cc3ccccc3)CC2)c1[N+](=O)[O-]", "Potency": "inconclusive: 31.6 µM [inhibitor, single point]"}, {"smiles": "COn1c(-c2ccc(Cl)cc2)nc2ncccc21", "activity change, negative = inhibition": "inactive: 0.365%"}, {"smiles": "Cc1nn(CCC#N)c(NC(=O)c2ccc(Cl)cc2)c1P(=O)(Nc1ccc([N+](=O)[O-])cc1)N1CCOCC1", "note": "(configuration not stated)", "activity change, negative = inhibition": "inactive: 6.02%"}, {"smiles": "CCSc1ccc(NC(=O)c2cccnc2)cc1", "activity change, negative = inhibition": "inactive: 0.835%"}, {"smiles": "CCCCCC(=O)N(CN1C(=O)CCC1=O)c1ccccc1", "Potency": "inconclusive: 4.47 µM [inhibitor, single point]"}, {"smiles": "O=C(CCNC(=O)c1ccc(Cl)cc1)Nc1ccc(F)cc1F", "activity change, negative = inhibition": "inactive: 0.171%"}, {"smiles": "COc1ccc(C2=NOC(Cn3nc(-c4ccccc4)cc3C(=O)NCc3ccco3)C2)cc1", "note": "(configuration not stated)", "Potency": "inconclusive: 1.12 µM [inhibitor, partial curve]"}, {"smiles": "O=C(CCNC(=O)c1ccc(Cl)cc1)NNC(=O)c1ccc(F)cc1", "Potency": "inconclusive: 31.6 µM [inhibitor, single point]"}, {"smiles": "N#CCCN(C(=O)Nc1ccc(Cl)cc1)c1ccccc1", "Potency": "inconclusive: 11.2 µM [inhibitor, single point]"}, {"smiles": "Cc1ccc(-c2cc(C(=O)N3CCOCC3)c3ccccc3n2)o1", "activity change, negative = inhibition": "inactive: -0.644%"}, {"smiles": "Cc1ccc(CN2CC(=O)N3[C@H]4c5cc(C)ccc5OC[C@@H]4[C@H](c4ccccc4)[C@]3(C)C2=O)cc1", "Potency": "inconclusive: 25.1 µM [inhibitor, single point]"}, {"smiles": "CC(O)[C@H]1CN=C(N)N1CCCCC1CCCCC1", "note": "(some centres not stated)", "activity change, negative = inhibition": "inactive: 11.2%"}, {"smiles": "COc1cc(NS(=O)(=O)N2CCCC2)cc(OC)c1OC", "Potency": "inconclusive: 20 µM [inhibitor, partial curve, poor fit]"}, {"smiles": "COc1ccccc1NC(=O)CC(=O)CSc1nnc(-c2ccc(C)cc2)n1C", "activity change, negative = inhibition": "inactive: -17%"}, {"smiles": "COc1ccc(CNC(=O)C[C@H]2C[C@H](C(=O)N3CCOCC3)[C@@]3(C)c4[nH]c5ccc(Cl)cc5c4CCN3C2=O)cc1OC", "Potency": "inconclusive: 35.5 µM [inhibitor, partial curve, poor fit]"}, {"smiles": "Cc1ccc(S(=O)(=O)/N=C(\\Nc2cc(C)on2)c2ccc(Cl)cc2)cc1", "activity change, negative = inhibition": "inactive: -3.24%"}, {"smiles": "CCc1ccc2nc(NC(=O)c3ccc(N4C(=O)CCC4=O)cc3)sc2c1", "Potency": "inconclusive: 2.82 µM [inhibitor, partial curve]"}, {"smiles": "CCN(CC)CC#CCC(O)(c1ccccc1)c1ccc(Br)cc1", "note": "(configuration not stated)", "Potency": "active: 10 µM"}, {"smiles": "CC12CCCC[C@@H]1CCC1C2CCC2(C)C1CC[C@@]2(O)CNCCO", "note": "(some centres not stated)", "activity change, negative = inhibition": "inactive: -0.445%"}]}]}
